Structures are written as SMILES. This is one part of the list. Most values come without repeats; read them as rough.
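Also: cell number obtained by counting DAPI-stained nuclei in high-throughput microscope images with image analysis software, screen run in 1,536-well plates.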

The test system of this test is WM115. Description: cell count relative to DMSO control; melanoma cells; higher = more viable cells. The settings on record: library dose: low library concentration; 72 h.
`O=C(O)[C@@H]1[O][Sb](=[O])([O][Sb]2(=[O])[O][C@H]([C@H](O)CO)[C@H](O)[C@H](C(=O)O)[O]2)[O][C@H]([C@H](O)CO)[C@@H]1O` (stereo partly specified) [stibogluconate] + CN(C)S(=O)(=O)c1ccc2c(c1)/C(=C/c1cc3c([nH]1)CCCC3)C(=O)N2 [SU6656] (first compound 2 µM, partner dose 0.4 µM) gave a cell count of 87.3%. On to `O=C(O)c1ccc2c(c1)nc(Nc1cccc(Cl)c1)c1ccncc12` + C[C@]1(c2nc3c(C(N)=O)cccc3[nH]2)CCCN1 [Veliparib] (first compound 0.4 µM, partner dose 1.4 µM), for which the cell count is 105%. The compound `O=C(Nc1cc(C(F)(F)F)cc(C(F)(F)F)c1)c1cc(Cl)ccc1O` + NC(=O)c1ccc(N(C(N)=O)c2c(F)cccc2F)nc1-c1ccc(F)cc1F [VX702] (first compound 0.016 µM, partner dose 0.4 µM) registered a cell count of 104%.

`O=C(Nc1cc(C(F)(F)F)cc(C(F)(F)F)c1)c1cc(Cl)ccc1O` + Cn1cnc2c(F)c(Nc3ccc(Br)cc3Cl)c(C(=O)NOCCO)cc21 [selumetinib] (first compound 0.016 µM, partner dose 0.015 µM) showed a cell count of 94.5%. In the case of `O=C(O)c1ccc2c(c1)nc(Nc1cccc(Cl)c1)c1ccncc12` + O=C1NC(=O)/C(=C/c2ccc(-c3ccc(F)cc3O)o2)S1 [AS252424] (first compound 0.4 µM, partner dose 1 µM) it was 97.1%; in that of `O=C(Nc1cc(C(F)(F)F)cc(C(F)(F)F)c1)c1cc(Cl)ccc1O` + O=C(O)[C@@H]1[O][Sb](=[O])([O][Sb]2(=[O])[O][C@H]([C@H](O)CO)[C@H](O)[C@H](C(=O)O)[O]2)[O][C@H]([C@H](O)CO)[C@@H]1O [stibogluconate] (first compound 0.016 µM, partner dose 2 µM), 89.3%.

(Values after the supplement of paper PMC4604168 (melanoma cell lines).)
